The list shows a part of the results. The main result of the screen is listed elsewhere. These columns were measured beside it and carry no call. Most of these compounds were active or inconclusive in the main read-out, so they are no random draw.

In general, inhibition refers to the relative decrease from the control value, in per cent.

The assay in a line: growth inhibition of WT strain, primary screen, mitochondrial fusion inhibitor project, WT and mutant strains, chemical genetic (AID 1362). Further: tested in S. cerevisiae. As to conditions: mitochondrial fusion phenotypic screen, at 10 µM.
For the molecule `Cc1ccc(C(=O)CC(=O)c2cc(Cl)ccc2O)cc1`, the inhibition worked out at 60.7%.

In the case of `CCOC(=O)C1=C(C)NC(C)=C(C(=O)OC)C1c1cccc(Cl)c1Cl` (stereo not given), the inhibition was -14.4%.

Consider `Cc1nc2sccn2c(=O)c1CCN1CCC(=C(c2ccc(F)cc2)c2ccc(F)cc2)CC1`, for which the inhibition stood at 71.8%.

Consider `Cc1cc(C)c(C(N)=O)c(Nc2cccc3ccccc23)n1`, for which the inhibition amounted to 28.7%.

`CC(C)Cn1c(=O)c(C(=O)Nc2ccccc2S(N)(=O)=O)c(O)c2ccccc21`: the inhibition was determined as 41.1%.

As to `CC(NC(=S)NCCCN1CCOCC1)C1CC2CCC1C2` (stereo not given), the inhibition was -3.38%.

For the molecule `O=C(Nc1nnc(-c2cccs2)o1)c1cc(-c2ccccc2)nc2ccccc12`, the inhibition turned out to be 62.4%.

Turning to `CC1=NOC(=O)/C1=C\c1ccc(-c2ccc(Cl)cc2Cl)o1`, the inhibition was 81.9%.

Turning to `CC(C)c1ccccc1NC(=S)NC1CCCCC1`, the inhibition turned out to be 63.1%.

Regarding `CCOc1ccc(N2C(=O)CC(Sc3nnnn3-c3ccccc3)C2=O)cc1` (stereo not given), the inhibition amounted to 41.2%.

For the molecule `Cc1ccc(NC(=S)NCCC(c2ccccc2)c2ccccc2)c(C)c1`, the inhibition was 34.6%.

As to `Cc1nc(Nc2ccccc2)sc1-c1ccccc1`, the inhibition was 18.5%.

On to `O=[N+]([O-])c1ccccc1/C=C/C=N/n1c(-c2ccccc2)n[nH]c1=S`, for which the inhibition turned out to be 22.7%.

Regarding `O=C(CCN1C(=O)/C(=C/c2cccs2)SC1=S)NC1=NCCS1`, the inhibition amounted to 17%.

Regarding `Cc1cc(N2CCC(C)CC2)nc(-n2nc(C)cc2C)n1`, the inhibition was determined as 66.5%.

Regarding `COc1ccc(NC(=S)N(CCCN2CCCC2)Cc2cccn2Cc2ccc(Cl)cc2)cc1Cl`, the inhibition came out at 28.6%.

`O=C(COC(=O)CC(c1ccccc1)c1ccccc1)Nc1ccc(F)c(F)c1`: the inhibition was determined as 33.3%.

In the case of `CCOC(=O)Cc1ccc2sc(-c3ccccc3)nc2c1`, the inhibition came to 45%.

In the case of `Cc1cccc(NC(=S)N(CCCN2CCCC2)Cc2cccn2Cc2ccc(Cl)cc2)c1`, the inhibition was 31.8%.

Regarding `CN1CCN(Cc2nc3ccccc3c(=O)n2Cc2nc(-c3ccc4ccccc4c3)cs2)CC1`, the inhibition turned out to be 78.3%.

Regarding `C/C(=N\NC(=O)COc1ccccc1-c1ccccc1)c1ccccn1`, the inhibition amounted to 61.8%.

Regarding `CNC(=O)c1nn(-c2ccc(Cl)cc2)ccc1=O`, the inhibition stood at 97.8%.

In the case of `CC(=O)c1sc(N/N=C\c2ccc(Br)cc2)nc1C`, the inhibition is 58.8%.

As to `CCOC(=O)c1ccc(NC(=S)N2CCSC2c2ccc(Cl)cc2)cc1` (stereo not given), the inhibition was determined as 37.5%.

`COC(=O)[C@@H]1[C@@H](C#N)C2(c3ccccc3-c3ccccc32)N(c2ccc(Cl)cc2)N1C#N`: the inhibition stood at 30.4%.

With `CN1CCN(c2cc(N3CCc4ccccc4C3)c(F)cc2[N+](=O)[O-])CC1`, the inhibition amounted to 73.1%.

Regarding `COc1ccc(/C=C/c2nc3cc(-c4ccccc4)ccc3o2)cc1O`, the inhibition is 5.88%.

For the molecule `O=C(NC1=C(Nc2ccc(F)cc2)C(=O)c2ccccc2C1=O)c1ccc(Cl)cc1`, the inhibition was 42.6%.

On to `Cc1nc(C(=O)Nc2cccc(Cl)c2)nn1-c1cc(OC(C)C)c(Cl)cc1Cl`, for which the inhibition was 32.9%.

Consider `Clc1ccc(-c2csc(Nc3ccccc3)[n+]2Cc2ccco2)c(Cl)c1`, for which the inhibition was 37.1%.

Turning to `N/C(=N\OC(=O)Cc1ccc(-c2ccccc2)cc1)c1ccccn1`, the inhibition amounted to 54.5%.

Take `CCCCCC1CCC(c2n[nH]c(=S)n2C)CC1` (stereo not given): the inhibition was determined as 56.3%.

For `COc1ccc(OC)c(-c2cc(C(=O)N3CCc4ccccc4C3)no2)c1`, the inhibition was determined as 35.1%.

In the case of `CCSc1ccc2cc(OC)ccc2[n+]1CC`, the inhibition was -40.2%.

Consider `Cc1c(N(C(=O)Nc2ccccc2)C2=NCC(C)S2)c(=O)n(-c2ccccc2)n1C` (stereo not given), for which the inhibition is 20.7%.

With `CC(C)(C)c1ccc(CN2N=C(/C=C/c3ccccc3)CCC2=O)cc1`, the inhibition was 3.81%.

`Cc1cc(C)cc(OCC(=O)OCC(=O)c2ccc3c(c2)NC(=O)CO3)c1`: the inhibition was -1.64%.

With `CCOC(=O)C1=C(C)N=C2SCCC(=O)N2C1c1sccc1C` (stereo not given), the inhibition was determined as 5.51%.

As for `Cc1cccc(N(C)C(=S)Oc2ccc3ccccc3c2)c1`, the inhibition was determined as 8.82%.

For `O=C(c1ccc(Cl)cc1[N+](=O)[O-])N(Cc1ccccc1)Cc1ccccc1`, the inhibition amounted to 29.1%.

Turning to `CCOC(=O)C1=NN(c2ccccc2)C2=NC(C)=C(C(=O)OC)C(c3ccc(C)cc3)N12` (stereo not given), the inhibition is 4.52%.

In the case of `CCOc1cccc(-c2cc(-c3n[nH]c(=S)n3CC)c3ccccc3n2)c1`, the inhibition was determined as 39%.

Consider `CC(C)=CCc1c(O)ccc(C(=O)Cc2ccccc2)c1O`, for which the inhibition stood at 34.9%.

For the molecule `Oc1cccc2c(NC(=S)Nc3ccc(SC(F)F)cc3)cccc12`, the inhibition came out at 49.7%.

With `c1ccc(-c2oc3ncnc(NCCCn4ccnc4)c3c2-c2ccccc2)cc1`, the inhibition worked out at 24.8%.

With `CCOC(=O)C1=C(c2ccccc2)N=C2SCC(=O)N2C1c1ccc2c(c1)OCO2` (stereo not given), the inhibition was 25%.

Consider `Cc1ccc(C)c(NC(=S)Nc2ncccc2C)c1`, for which the inhibition turned out to be 55%.

As for `O=C(c1cnc(-c2ccccc2)s1)c1ccc(Cl)cc1Cl`, the inhibition was 34.2%.

Regarding `COC(=O)c1ccccc1NC1=C/C(=N\S(=O)(=O)c2cccs2)c2ccccc2C1=O`, the inhibition was determined as 37.2%.

As for `COC(=O)c1c(NC(=O)c2c(-c3ccccc3Cl)noc2C)sc2c1CCC2`, the inhibition was 32.1%.

In the case of `CN(C1=C(N2CCCCC2)C(=O)c2ccccc2C1=O)c1ccccc1`, the inhibition was found to be 36.3%.

As to `CC(C)(C)c1nc(NC(=O)Nc2ccccc2)sc1Br`, the inhibition is 29.2%.

For `Cc1sc2nc(CN(Cc3cccs3)C(=O)NC3CCCCC3)[nH]c(=O)c2c1C`, the inhibition came out at 14.1%.

For `CN1CC(c2ccccc2Cl)C2(COc3ccccc3C2=O)C12C(=O)Nc1ccccc12` (stereo not given), the inhibition turned out to be 11.9%.

On to `CSc1ccc(CN(C)CC(=O)Nc2ccc(C)cc2Br)cc1`, for which the inhibition worked out at 22.4%.

`Cn1c(=O)n(C)c2cc([N+](=O)[O-])c(N3CCN(S(=O)(=O)c4ccc(C(C)(C)C)cc4)CC3)cc21`: the inhibition is -3.08%.

For `Cc1cccc(C)c1NC(=S)NC(C)CCc1ccccc1` (stereo not given), the inhibition came to 62.1%.

Regarding `S=C(NCc1ccc(Cl)cc1Cl)NC1CCCCC1`, the inhibition worked out at 72.7%.

Turning to `Cc1cccc(NC(=S)N/N=C/c2ccc3c(c2)OCO3)c1`, the inhibition is -0.1%.

Take `FC(F)(F)c1nc(N2CCCC2)ncc1-c1nnnn1-c1ccccc1`: the inhibition was 20.9%.

`COc1cc2c(C(=O)N3CCOCC3)c(CSc3ccccc3)n(C)c2cc1Br`: the inhibition is 20.6%.

For the molecule `CN=c1scc(-c2ccccc2F)n1/N=C(\C)c1cccnc1`, the inhibition worked out at 66.9%.

`O=C(COc1ccc(Cl)cc1Cl)N1CCCN(C(=O)COc2ccc(Cl)cc2Cl)CC1`: the inhibition amounted to 55.4%.

In the case of `COc1ccccc1-c1c(C)nn2c(N3CCN(Cc4ccccc4)CC3)cc(C)nc12`, the inhibition amounted to 50.1%.

As to `CCC1Oc2ccc(C)cc2N(CC(=O)NCCCN2CCCCC2CC)C1=O` (stereo not given), the inhibition worked out at 19.5%.

`C/C(=N\N=C(/N)SC1CC(=O)N(c2ccc(Cl)cc2)C1=O)c1cccs1` (stereo not given): the inhibition turned out to be 45.7%.

For the molecule `CC12CCC(c3c(C(=O)Nc4nccs4)nn(-c4ccccc4)c31)C2(C)C` (stereo not given), the inhibition is 28.6%.

Regarding `Cc1[nH]n(C(N)=S)c(=O)c1N=Nc1ccc(S(=O)(=O)N2CCCCCC2)cc1`, the inhibition came out at 34.1%.

On to `O=C(Nc1ccc2c(c1)OCO2)c1ccccc1SCC(=O)N1CCCC1`, for which the inhibition was -11.8%.

With `CCCOc1ccc(-c2nc(C#N)c(N3CCC(C(N)=O)CC3)o2)cc1`, the inhibition was -12.2%.

With `CCC(C)c1ccc(NC(=O)COc2c(F)c(F)c(C(F)(F)F)c(F)c2F)cc1` (stereo not given), the inhibition was -11.8%.

Consider `COc1ccc(C(=O)NN(C)c2nc(-c3ccccc3)nnc2C(F)(F)F)cc1`, for which the inhibition was found to be 7.72%.

On to `c1ccc(-c2noc(CN3CCN(C(c4ccccc4)c4ccccc4)CC3)n2)cc1`, for which the inhibition was determined as 62.3%.

On to `O=C(Nc1nnc(-c2ccco2)o1)c1ccc(Cl)cc1`, for which the inhibition stood at 64.8%.

For the molecule `CCCSc1nc(-n2ncc(C#N)c2N)c2c3c(sc2n1)CCC(C)C3` (stereo not given), the inhibition was found to be 21.8%.

`S=C1NC2(CCCCC2)Cc2ccccc21`: the inhibition turned out to be 50.3%.

Regarding `COc1ccccc1N(CC(O)COc1c(C)cc(C)cc1C)S(=O)(=O)c1ccccc1` (stereo not given), the inhibition was 4.17%.

With `CN1CCN(CCCNC(=O)c2ccc(/C=C3/Sc4ccccc4N(Cc4cccc(Cl)c4)C3=O)cc2)CC1`, the inhibition came to 22.7%.

On to `CCOC(=O)NC(c1ccc(C(C)C)cc1)C(Cl)(Cl)Cl` (stereo not given), for which the inhibition is 42.6%.

For `COc1ccc(CCNS(=O)(=O)c2ccc(OC)cc2)cc1`, the inhibition amounted to 14.6%.

Turning to `CN(C)S(=O)(=O)c1cccc(-n2sc3ccccc3c2=O)c1`, the inhibition is 43.5%.

For `COc1cc(NC(=O)c2ccc([N+](=O)[O-])o2)ccc1NC(=O)c1cccs1`, the inhibition came to 91.1%.

For `COC(=O)c1c(NC(=O)CN2CCC3(O)CCCCC3C2c2ccc(OC)cc2OC)sc(C)c1C` (stereo not given), the inhibition was found to be 4.15%.

With `Cc1cccc(NC(=O)C2C(c3ccccc3)C2(Cl)Cl)c1` (stereo not given), the inhibition was 32.5%.

On to `CCC(c1nnnn1C(C)(C)C)N1CCN(c2cc(Cl)ccc2C)CC1` (stereo not given), for which the inhibition came out at 41.1%.

Consider `COc1ccc(C(CCNC(C)c2ccccc2)c2ccc(F)cc2)cc1` (stereo not given), for which the inhibition came out at 18.4%.

On to `O=C(O)c1ccc(NC(=S)NC(=O)c2cccc(COc3ccccc3)c2)cc1`, for which the inhibition is 70.9%.

Consider `Cc1cc(-c2ccccc2)nc2cc(C(=O)N(Cc3ccccc3)Cc3ccccc3)nn12`, for which the inhibition is 7.32%.

`COc1ccc(CNCc2cn(-c3cccc(F)c3)nc2-c2ccc(C)o2)cc1`: the inhibition turned out to be 45.1%.

Regarding `O=C(NC(=S)Nc1ccc(S(=O)(=O)NC2CCCCC2)cc1)c1cccs1`, the inhibition was found to be 3.11%.

As for `CCOC(=O)c1c(C)[nH]c(C2=NNC(=Nc3cccc(Cl)c3)SC2)c1C`, the inhibition was 35.2%.

With `COc1ccc(C(=O)/C=C/C(=O)N(CC(=O)NC2CCCCC2)Cc2cccs2)c(O)c1`, the inhibition amounted to 17.2%.

For `CCCC[C@@H]1C[C@H]1[C@@H](NC(=O)c1cccs1)c1ccc(Cl)cc1`, the inhibition is 3.03%.

Turning to `NS(=O)(=O)c1ccc(N2N=C(c3ccccc3)CC2c2cccc(F)c2)cc1` (stereo not given), the inhibition stood at 62%.

Take `S=C(NCc1ccco1)Nc1ccc(Oc2ccccc2)cc1`: the inhibition worked out at 31.3%.

On to `CCCc1cc(-c2nc(-c3ccc(Cl)cc3)cs2)ccn1`, for which the inhibition was 55.1%.

In the case of `c1ccc2c(c1)ncn2CCCCOc1ccc2c(c1)CCC2`, the inhibition was found to be 66.4%.

`CC(C)c1ccc(NC(=O)c2cc(S(=O)(=O)NCC3COc4ccccc4O3)ccc2F)cc1` (stereo not given): the inhibition was determined as 28.8%.

For `Cc1c(Cl)ccc2c(C(=O)NCCN3CCCCC3)cc(-c3ccccn3)nc12`, the inhibition is 93.3%.

Regarding `N#CC(c1ccc(Cl)cc1)(c1ncc(C(F)(F)F)cc1Cl)N1CCOCC1` (stereo not given), the inhibition came to 13.8%.

Take `Cc1cc(-c2sccc2C)nc(-n2cccc2)n1`: the inhibition is -55.4%.

`C=CCn1c(COc2ccccc2-c2ccccc2)nnc1SCC(=O)NC(=O)NCc1ccco1`: the inhibition was 6.6%.

Take `COc1ccc(NC(=O)c2oc3ccccc3c2NC(=O)COc2ccccc2OC)c(OC)c1`: the inhibition was -8.04%.

Consider `CCc1ccccc1NCC(=O)Nc1ccc(Cl)c(C(F)(F)F)c1`, for which the inhibition came out at 78.5%.

For `O=C(Nc1nc2ccccc2n1CCOc1ccc(Cl)cc1)c1ccco1`, the inhibition came to 36.4%.
